The values below come from the supplement of paper PMC11417369.

± gives the standard deviation of the averaged measurements. The list shows a part of the results.

The test deals with PfAP2-EXP AP2 domain (GST-tagged). Put plainly: gcPBM binding intensity (ln(normalized median fluorescence intensity)); higher = stronger DNA binding. An outline of the steps:
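In this array assay, P. falciparum DNA-binding domains with a GST tag, expressed in E. coli, were applied for 1 h to primer-extended double-stranded 36-bp intergenic genomic probes and negative controls on an Agilent 4 × 180k array. Bound protein was visualised with Alexa488 anti-GST antibody at 488 nm. Binding intensity is the highest Masliner-normalised natural-log median intensity across replicate spots of either probe orientation.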
For the sequence “AATTGTATAAATGGAATAATGACTATGATTATACAT [GTGCAC_negctrl_site188]”, the “gcPBM binding intensity (ln)” value came to 8.63 ± 0.39.

For the sequence “AAAAATTCTTGGCGCACACACTTTAAAAGTTAAAAA [CACACA_site6430]”, the “gcPBM binding intensity (ln)” value came to 8.79 ± 0.4.

ACCATATAAAGTTAGGTGCATTTGTATGTATCTTAC: the “gcPBM binding intensity (ln)” value turned out to be 8.55 ± 0.26.

Turning to “TTATTTTGATCTGGTTGTACATATAATATATAGTGG [XGTACX_site357]”, the “gcPBM binding intensity (ln)” value turned out to be 8.91 ± 0.48.

Consider “TCTTGTTCGCCCTATTGTACAAACATATATTGTGAT [XGTACX_site2884]”, for which the “gcPBM binding intensity (ln)” value amounted to 9.16 ± 0.42.

In the case of “ATTAATTTGATTTTAATAAGAATATTTGTGGGGAAT [GTGCAC_negctrl_site198]”, the “gcPBM binding intensity (ln)” value amounted to 8.62 ± 0.79.

Turning to “TGAATAATAAAAAATACACACACATATATATATATT [CACACA_site9146]”, the “gcPBM binding intensity (ln)” value turned out to be 8.45 ± 0.47.

Consider “ATATTGATTTGTGGCACACATATAATATATTCCTAT [CACACA_site3046]”, for which the “gcPBM binding intensity (ln)” value was determined as 8.51 ± 0.21.

Regarding “TTTTCAATATATATATGCTGAATTTATAATTTGTAT [CACACA_negctrl_site1774]”, the “gcPBM binding intensity (ln)” value amounted to 8.26 ± 0.35.

Take “TTTTATTTTTGTTGGTCCCTCATTTAAGTTAATAAA [TGCATGCA_negctrl_site465]”: the “gcPBM binding intensity (ln)” value is 8.69 ± 0.33.

With “ATATATACATACATATGTACATATGTAGATATATTT [XGTACX_site1230]”, the “gcPBM binding intensity (ln)” value came out at 8.33 ± 0.31.

In the case of “TACGTTTTAAAACACACACACAAAAAAAAAAAAAAA [CACACA_site3876]”, the “gcPBM binding intensity (ln)” value turned out to be 8.23 ± 0.47.

As to “ATTATGAAATATCGTGCACACACGAATAATATAAGA [CACACA_site1294]”, the “gcPBM binding intensity (ln)” value was determined as 8.735 ± 0.007.

As to “TATTTGTTTAAATTCACACACGTATATATATTTATA [CACACA_site5651]”, the “gcPBM binding intensity (ln)” value amounted to 8.62 ± 0.38.

Take “ATTTTTTTTGTTTATTCTTATGTGGTTATTAAATTA [CACACA_negctrl_site1000]”: the “gcPBM binding intensity (ln)” value was determined as 8.9 ± 0.64.

Turning to “AAAAGAGAAATGGGCACACACACACCCATTATATAT [CACACA_site1530]”, the “gcPBM binding intensity (ln)” value is 8.49 ± 0.49.

As to “ATTTTTATATATATCTGTACTAAAAAAAAAAAAAAA [XGTACX_site5258]”, the “gcPBM binding intensity (ln)” value worked out at 8.19 ± 0.33.

“AGAAGTAAAAAAATAGCACACACACTAATACCAACA [CACACA_site8354]”: the “gcPBM binding intensity (ln)” value was 8.93 ± 0.62.

For the sequence “AAACAAAAAAGAAAAACAATGAGATAAAGAAGAGAA [CACACA_negctrl_site804]”, the “gcPBM binding intensity (ln)” value came out at 9.07 ± 0.77.

On to “TTTAATTATTTATTTTGTACATATATTATATATATA [XGTACX_site5760]”, for which the “gcPBM binding intensity (ln)” value is 8.66 ± 0.3.

For the sequence “AAAAGAAAAATATTCACACATATAAATAATATATAA [CACACA_site4201]”, the “gcPBM binding intensity (ln)” value is 8.24 ± 0.33.

Consider “TTATATTAATATTATATTTAAAAATAAAATATAAAT [TGCATGCA_negctrl_site79]”, for which the “gcPBM binding intensity (ln)” value came to 7.66 ± 0.33.

Turning to “TATTTATATATTTGTTGTACGTATTTATATATTCTT [XGTACX_site3622]”, the “gcPBM binding intensity (ln)” value was found to be 8.87 ± 0.39.

AAATAAATAAATAGAGTGCATATATATATATATTTT: the “gcPBM binding intensity (ln)” value came out at 8.49 ± 0.16.

In the case of “ATATACAAAGGATTAACACACATATTATTATAGATA [CACACA_site6966]”, the “gcPBM binding intensity (ln)” value is 8.47 ± 0.47.

For “CTTTTTATTTATCATACACACACAGAAAAAAAAAAA [CACACA_site7935]”, the “gcPBM binding intensity (ln)” value was 8.6 ± 0.46.

For the sequence “ATAGGAGAAAAAGAATGTACGTATGATGTTGAAAAT [XGTACX_site7779]”, the “gcPBM binding intensity (ln)” value was 9.23 ± 0.27.

“ATTATGCACAGACACACACACACACTACTAAAAAAT [CACACA_site7252]”: the “gcPBM binding intensity (ln)” value was determined as 8.91 ± 0.21.

As to “AATTTTTAGAAGAACACACACATATATATTATGACC [CACACA_site246]”, the “gcPBM binding intensity (ln)” value was found to be 8.71 ± 0.49.

Consider “AAGCATTTTTTTTAAAGCCTGTTCATCATCCTTACC [CACACA_negctrl_site129]”, for which the “gcPBM binding intensity (ln)” value amounted to 8.57 ± 0.45.

With “AAAAAAAATAAAAATATATATATATATATATAAATA [GTGCAC_negctrl_site676]”, the “gcPBM binding intensity (ln)” value is 8.44 ± 0.27.

As to “TACATTATAAATATTACACACTTTATAAAATAATAA [CACACA_site6096]”, the “gcPBM binding intensity (ln)” value was 8.07 ± 0.36.

For the sequence “ACCGTGGGAGGACACACACACACACGCACATATATA [CACACA_site6289]”, the “gcPBM binding intensity (ln)” value came to 8.52 ± 0.33.

On to “AAATAACTTTTAAATACACACGTAAAATATATTGTG [CACACA_site9085]”, for which the “gcPBM binding intensity (ln)” value was found to be 8.44 ± 0.42.

On to “ATAATATTTTTATGTACACACCTTAATCCTTAAAAG [CACACA_site5881]”, for which the “gcPBM binding intensity (ln)” value is 8.54 ± 0.35.

As to “TTAACCACTAAAAGTACACACATATATACATATATA [CACACA_site3912]”, the “gcPBM binding intensity (ln)” value was found to be 8.49 ± 0.13.

For the sequence “TCCTTTTTTTTTTATGCACACACAATTATACATTCC [CACACA_site9287]”, the “gcPBM binding intensity (ln)” value was 9.06 ± 0.4.

In the case of “TCTATTAATTAATATACACACATTATATATATATAT [CACACA_site8815]”, the “gcPBM binding intensity (ln)” value worked out at 9.36 ± 1.2.

For the sequence “AATATATATATATATATATTTTTGTTAGAATATGGA [CACACA_negctrl_site212]”, the “gcPBM binding intensity (ln)” value was 8.32 ± 0.26.

As to “AAATATTACATACACGCACACATTAAAATATTTAAA [CACACA_site5440]”, the “gcPBM binding intensity (ln)” value turned out to be 8.62 ± 0.44.

As to “ATGTACCTTCAAACTACACACAAATGAAGGAACACA [CACACA_site3330]”, the “gcPBM binding intensity (ln)” value came to 8.71 ± 0.5.

With “ATCTAATAAAAATACACACACATATGGTTTGTGAAT [CACACA_site6962]”, the “gcPBM binding intensity (ln)” value was 8.21 ± 0.43.

Consider “ATATAGAATGTTTACACACGCAATAAATATATATAT [CACACA_site217]”, for which the “gcPBM binding intensity (ln)” value is 9.27 ± 0.13.

Regarding “ATGGTATAAAAAAATACACACTTATTTATATTCTTA [CACACA_site6370]”, the “gcPBM binding intensity (ln)” value came to 8.23 ± 0.29.

Turning to “GCGTATCATTTTAAAACACACAGGATTTTATAAGTA [CACACA_site1225]”, the “gcPBM binding intensity (ln)” value amounted to 8.4 ± 0.4.

For the sequence “AAAAATAACATATAAACACACATATAGATTTATATA [CACACA_site7738]”, the “gcPBM binding intensity (ln)” value was 8.4 ± 0.38.

In the case of “TTAAAAAATCACAACACACACACACGCAAAAAAAAA [CACACA_site6793]”, the “gcPBM binding intensity (ln)” value was 8.7 ± 0.57.

“TGTAGTCTGGAGAAGAGTACACAGTATCTGGTAGCT [XGTACX_site2036]”: the “gcPBM binding intensity (ln)” value was found to be 8.5 ± 0.35.

In the case of “TTACAAAACCGATGTTGTACATTCAATAGATAATGT [XGTACX_site3806]”, the “gcPBM binding intensity (ln)” value is 8.44 ± 0.32.

For “TAGTTGTGAGTTACATGTACATGTATTTATTTTTTA [XGTACX_site7088]”, the “gcPBM binding intensity (ln)” value was 8.88 ± 0.47.

On to “ATATACCATATGCATGGTACACATTTACAACAAAAA [XGTACX_site3142]”, for which the “gcPBM binding intensity (ln)” value turned out to be 8.44 ± 0.31.

On to “AATGTATAAAAGTTTTGTACATATTCTCACACATAT [XGTACX_site965]”, for which the “gcPBM binding intensity (ln)” value is 8.53 ± 0.46.

Take “TTTATTAAATAAAGCACACACAACAACTTTTCACAA [CACACA_site4132]”: the “gcPBM binding intensity (ln)” value was determined as 8.78 ± 0.35.

With “GATAACAATATGTGTACACATTTATATCTCCACATA [CACACA_site5442]”, the “gcPBM binding intensity (ln)” value worked out at 8.87 ± 0.14.

Take “ATAACGTAAACAATGTGGACACATACATAAATATAT [XGTACX_site707]”: the “gcPBM binding intensity (ln)” value was 8.71 ± 0.35.

For “TAATACTTAAAATGTTGTACATAATAATTTTATATT [XGTACX_site5403]”, the “gcPBM binding intensity (ln)” value came out at 8.31 ± 0.16.
